The campaign covered roughly 200,000 compounds. About 4,500 (2.2%) were called active. Inconclusive results, whose numbers are uncertain, are shown with a selection of clear calls. Calls come from the whole dose curve; as a rule, active = well fitted inhibition curve with a large enough effect; inconclusive = small, poorly fitted or top-dose-only effect, or effect the other way; inactive = flat fitted curve, though single readings scatter. Where the call is inconclusive, the potency comes from a doubtful curve fit.
The compounds below were run against Cruzipain (Trypanosoma cruzi) (UniProt P25779) (assay: qHTS Assay for Promiscuous and Specific Inhibitors of Cruzain (without detergent)). Details: purified cruzain, Z-FR-AMC fluorescence, no detergent.
Chain of UniProt P25779 (P25779 whole entry, looked up): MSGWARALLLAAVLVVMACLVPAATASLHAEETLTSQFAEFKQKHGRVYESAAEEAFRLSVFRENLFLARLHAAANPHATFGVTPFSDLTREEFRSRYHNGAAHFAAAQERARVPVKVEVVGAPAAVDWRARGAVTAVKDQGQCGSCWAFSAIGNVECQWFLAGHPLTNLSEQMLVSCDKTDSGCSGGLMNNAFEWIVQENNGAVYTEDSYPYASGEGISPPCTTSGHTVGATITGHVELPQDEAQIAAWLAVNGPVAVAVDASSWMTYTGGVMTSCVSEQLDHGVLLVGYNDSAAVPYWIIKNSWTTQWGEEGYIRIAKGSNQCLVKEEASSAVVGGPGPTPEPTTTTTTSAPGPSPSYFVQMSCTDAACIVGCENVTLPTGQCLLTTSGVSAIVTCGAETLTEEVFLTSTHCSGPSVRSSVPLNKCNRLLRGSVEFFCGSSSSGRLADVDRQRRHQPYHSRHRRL
How it was run: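 Detergent-free condition (0.00005% Triton X-100) in acetate buffer pH 5.5 with DTT. 1.5 nM enzyme and compound were pre-mixed 15 min, then 2 uM Z-FR-AMC substrate added; reaction progress from fluorescence change between first and third reads (60 s).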
Note: nearly all actives have a fitted effect of over 40% in size.
Potency is the fitted concentration of half-maximal effect; tags give direction and shape of the fitted curve.
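Throughout, for max response, negative = inhibition: plate controls were enzyme without inhibitor for no effect and buffer without enzyme for full effect.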

Row | Structure (SMILES) | Potency | max response, negative = inhibition
1 | CC(C)C(NC(=O)c1ccc(S(=O)(=O)N2CCOCC2)cc1)c1nc2ccccc2[nH]1 (stereo unspecified) | inconclusive: 39.8 µM [inhibitor, single point] | 
2 | CCOCCCNc1ncnc2c1[nH]c1ccccc12 | inconclusive: 12.6 µM [inhibitor, single point] | 
3 | CCn1ncc(C2=NOC(C(=O)Nc3cc(OC)c(Cl)cc3OC)C2)c1C (stereo unspecified) | inconclusive: 31.6 µM [activator, single point] | 
4 | C=CCn1c(-c2csc(-c3ccc(Cl)cc3)n2)n[nH]c1=S | inconclusive: 20 µM [inhibitor, single point] | 
5 | CCCSc1nnc2n(-c3ccc(OC)cc3)c(=O)c3c4c(sc3n12)COC(C(C)C)C4 (stereo unspecified) |  | inactive: -4.57%
6 | CCCOc1cccc(C(=O)NC(=S)Nc2cccc(NC(=O)c3ccccc3Cl)c2)c1 | inconclusive: 39.8 µM [inhibitor, single point] | 
7 | CCn1c(CC2C(=O)N(C)c3ccccc32)nc2ccccc2c1=O (stereo unspecified) |  | inactive: -1.55%
8 | O=C(Nc1nc2ccccc2s1)c1cc(-c2ccccc2)nn1-c1ccccc1 | active: 10 µM | 
9 | COc1ccccc1N1CCN(C(=O)c2cc(-c3ccc(Cl)cc3)on2)CC1 | inconclusive: 39.8 µM [activator, single point] | 
10 | COC(=O)COc1cccc(NC(=O)c2ccc(C)cc2)c1 |  | inactive: -4.79%
11 | COc1ccc(-n2c(=O)c3sc4ccccc4c3n(CC(=O)NCc3ccccc3)c2=O)cc1 |  | inactive: 5.83%
12 | Cc1ccc(CCNC(=O)c2ccc3c(c2)c(C)c(C)n3Cc2ccccc2)cc1 | active: 12.6 µM | 
13 | Cc1ccc(NC(=O)Cn2nnc(-c3nc(-c4ccc(Cl)cc4)no3)c2N)cc1C |  | inactive: -14.6%
14 | CCc1ccccc1NC(=O)Cc1ccc(-n2cccc2)cc1 | inconclusive: 31.6 µM [inhibitor, single point] | 
15 | COc1ccc2[nH]c3nc(SCc4nnc(-c5ccccc5)o4)nnc3c2c1 |  | inactive: -0.601%
16 | Cc1nn2c(=O)cc(COC(=O)c3ccc(NC(=O)c4cccs4)cc3)nc2s1 |  | inactive: 6.75%
17 | CCOC(=O)c1c(-c2ccccc2Cl)csc1NC(=O)c1cc(S(=O)(=O)N2CCOCC2)ccc1C | active: 25.1 µM | 
18 | Cc1ccc(-n2c(C)cc(/C=C3/C(=N)N4C(c5ccccc5)=CSC4=NC3=O)c2C)cc1 | active: 6.31 µM | 
19 | CCc1cccc(C)c1N(C(=O)Cn1c(COC)nc2ccccc21)C(C)COC (stereo unspecified) | inconclusive: 39.8 µM [activator, single point] | 
20 | O=C(NCCc1ccccc1)c1ccc2c(c1)CCN2S(=O)(=O)c1ccccc1 |  | inactive: -3.83%
21 | CCCCNCc1cc(Br)c(OCC(=O)N2CCOCC2)c(OC)c1 |  | inactive: 6.04%
22 | CCCSc1ncc(Cl)c(C(=O)Nc2c(C(=O)c3ccc(F)cc3)oc3ccccc23)n1 |  | inactive: -5.76%

Row | Structure (SMILES) | Potency | max response, negative = inhibition
23 | COc1ccc(CCNC(=O)c2c(C)nn(-c3ccc(F)cc3)c2-n2cccc2)c(OC)c1OC | inconclusive: 39.8 µM [activator, single point] | 
24 | O=C(Cn1ccc2ccccc2c1=O)N1CCN(c2cccc(Cl)c2)CC1 | inconclusive: 31.6 µM [inhibitor, single point] | 
25 | Cc1ccc(Nc2sc(C(=O)c3ccccc3)c(N)c2S(=O)(=O)c2ccccc2)c(C)c1 | active: 10 µM | 
26 | CCOC(=O)c1c(C)[nH]c(C)c1S(=O)(=O)N(C)CC(=O)Nc1cc(Cl)ccc1OC | inconclusive: 31.6 µM [activator, single point] | 
27 | Cn1c(SCc2ccccc2)nnc1-c1ccncc1 | inconclusive: 31.6 µM [inhibitor, single point] | 
28 | COc1ccc(C(=O)CSc2nnc(-c3ccccn3)n2Cc2ccco2)cc1 | inconclusive: 25.1 µM [activator, single point] | 
29 | CCCCOc1ccc(-c2nc(-c3cccnc3)no2)cc1 | inconclusive: 39.8 µM [activator, single point] | 
30 | CC1(C)C(=O)N(CC(=O)Nc2ccc(OC(F)(F)F)cc2)c2ccccc21 |  | inactive: 6.69%
31 | COc1cc(/C=C/c2nnc3c4ccccc4ncn23)cc(OC)c1OC | inconclusive: 20 µM [activator, partial curve] | 
32 | COc1ccc(NC(=O)Cn2c(=O)n(-c3ccccc3)c(=O)c3ccc(C(=O)NCc4ccc5c(c4)OCO5)cc32)cc1 | inconclusive: 7.94 µM [activator, single point] | 
33 | Cc1cc(NC(=O)c2ccc(Cl)c(Cl)c2)ccc1-c1cc2ccccc2oc1=O |  | inactive: 17.4%
34 | COc1ccccc1Nc1nc(-c2sc(NC(=O)CC(C)C)nc2C)cs1 | inconclusive: 31.6 µM [inhibitor, single point] | 
35 | O=C(Cn1c(=O)n(-c2ccccc2)c(=O)c2ccc(C(=O)NCc3ccc4c(c3)OCO4)cc21)Nc1ccc(Br)cc1F | inconclusive: 39.8 µM [inhibitor, single point] | 
36 | CC1CCN(c2ccccc2NC(=S)NC(=O)c2ccc(-c3cccc([N+](=O)[O-])c3)o2)CC1 | active: 7.94 µM | 
37 | Cc1ccc(S(=O)(=O)Cc2ccc(C(=O)N3CCN(c4cc(C)ccc4C)CC3)o2)cc1 | inconclusive: 20 µM [activator, partial curve] | 
38 | CC(C)CNS(=O)(=O)c1cc(C(=O)N2CCOCC2)c(Cl)cc1Cl | inconclusive: 20 µM [inhibitor, single point] | 
39 | COc1cccc(S(=O)(=O)NCc2ccc(C(=O)Nc3ccc(Cl)cc3)cc2)c1 | inconclusive: 31.6 µM [inhibitor, single point] | 
40 | COc1cccc(/C=C(\C#N)c2nc3ccc(C)cc3[nH]2)c1 | inconclusive: 25.1 µM [inhibitor, single point] | 
41 | CCc1ccc2c(c1)C(c1ccc([N+](=O)[O-])cc1)=NNC(c1ccccc1)=N2 | inconclusive: 39.8 µM [inhibitor, single point] | 
42 | CCN1CC=C2C(C#N)=C(N)C(C#N)(C#N)C(CCc3ccccc3)C2C1 (stereo unspecified) | active: 6.31 µM | 
43 | CCOC(=O)c1c(C)[nH]c(C)c1C(=O)COC(=O)c1ccc(S(=O)(=O)N(CC)CC)cc1 | inconclusive: 39.8 µM [activator, single point] | 
44 | N#C/C(=C\c1cn(CCOc2ccccc2F)c2ccccc12)C(=O)NCc1cccs1 | inconclusive: 39.8 µM [inhibitor, single point] | 

Row | Structure (SMILES) | Potency | max response, negative = inhibition
45 | Cc1ccc(CNC(=O)[C@H](C)[C@H]2C[C@]2(C)[C@H](NC(=O)OCc2ccccc2)c2ccccc2)o1 | inconclusive: 39.8 µM [activator, single point] | 
46 | COc1c(C)cc(Br)cc1C(=O)Nc1ccc(C)cc1[N+](=O)[O-] | active: 25.1 µM | 
47 | COc1ccc(CN(C(=O)Nc2ccccc2)c2ccccn2)cc1OC |  | inactive: 9.2%
48 | O=C(CN1CCN(S(=O)(=O)c2cc(Cl)ccc2Cl)CC1)Nc1ccc2c(c1)OCCO2 | inconclusive: 39.8 µM [inhibitor, single point] | 
49 | CNC(=O)C1CC(=O)N(CCc2ccc(OC)cc2)C(=Nc2ccc(OC)cc2)S1 (stereo unspecified) | inconclusive: 31.6 µM [activator, single point] | 
50 | Cc1ccc(C2c3[nH]c4ccccc4c3CCN2C(=O)c2ccc(N(C)C)cc2)cc1 (stereo unspecified) | inconclusive: 39.8 µM [inhibitor, single point] | 
51 | CCN(CC)C(=O)CSc1nnc([C@H](Cc2c[nH]c3ccccc23)NC(=O)OC(C)(C)C)o1 | inconclusive: 31.6 µM [activator, single point] | 
52 | Cc1cccc(NC(=O)Cn2c(=O)n(CCc3c[nH]c4ccccc34)c(=O)c3cccnc32)c1 | active: 25.1 µM | 
53 | N#Cc1ccc(COc2ccc(CCO)cc2-n2nc3ccccc3n2)cc1 | inconclusive: 39.8 µM [activator, single point] | 
54 | O=C(CSc1nc2ccccc2s1)Nc1nccs1 | inconclusive: 31.6 µM [inhibitor, single point] | 
55 | O=C(CCOc1ccccc1)N(Cc1cccnc1)c1nc2c(Cl)cccc2s1 |  | inactive: -10.8%
56 | COc1cccc([C@@H]2Oc3ccc(OC)cc3C(=O)[C@H]2OC(=O)N[C@H](C)C2CCCCC2)c1 | inconclusive: 25.1 µM [inhibitor, single point] | 
57 | CC1CCCC(NC(=O)Cc2ccc(Br)cc2)C1C (stereo unspecified) | inconclusive: 20 µM [inhibitor, partial curve, poor fit] | 
58 | Cc1ccc(CCNC(=O)CCSCc2ccccc2F)cc1 |  | inactive: -10.5%
59 | CCCSc1nc2c(cnn2-c2ccc(Cl)cc2)c(=O)[nH]1 | active: 10 µM | 
60 | CCOc1ccc2c(c1)nc(SCC(=O)c1ccc(Br)s1)n2C | active: 25.1 µM | 
61 | C[C@@H](C(=O)Nc1ccc2ccccc2c1)[C@@H]1C[C@@]1(C)[C@@H](NS(=O)(=O)c1ccc(-c2ccccc2)cc1)c1ccccc1 | active: 3.16 µM | 
62 | Cc1ccc(NC(=O)C(Nc2cccc(C)c2)c2ccccc2)cc1 (stereo unspecified) |  | inactive: -20.3%
63 | Cc1cc(NC(=O)/C(C#N)=C/c2ccc(-c3cccc(C(F)(F)F)c3)o2)n(-c2ccccc2)n1 | inconclusive: 15.8 µM [activator, partial curve] | 
64 | CC1(C)CC(=O)C(C=NCCN2CCN(C(=O)C34CC5CC(CC(C5)C3)C4)CC2)=C(O)C1 | inconclusive: 25.1 µM [activator, partial curve] | 
65 | COc1cccc(NC(=O)c2sc3nc(C)c(C(=O)Nc4ccc(C)cc4C)c(-c4ccc(Br)cc4)c3c2N)c1 |  | inactive: -4.3%
66 | COc1ccc(N2CCN(C(=O)c3cc4c(=O)n(Cc5cccs5)ccc4nc3C)CC2)cc1 | inconclusive: 31.6 µM [activator, single point] | 
